Assay results as given in a collection of fitness landscapes (doi:10.1016/j.celrep.2020.107928).
In all, about 81,000 sequences were measured (“one-hybrid fitness for binding parS DNA”: median about -0.17, highest 2% from about 0.51 on). This is one part of the list.

B1: Caulobacter ParB omega fusion; a variant is named by its letters at X, in order, B8GW30 (parent)
chain: MESVVVGEPGMSEGRRGLGRGLSALLGEVDAAPAQAPGEQLGGSREAPIEILQRNPDQPRRTFREEDLEDLSNSIREKGVLQPILVRPSPDTAGEYQIVAGERAWRAAQRAGLKTVPIMVRELDDLAVLEIGIIENVQRADLNVLEEALSYKVLMEKFERTQENIAQTIGKSXSHVANXMRLLXLPDEVQSYLVSGELTAXHARAIAAAADPVALAKQIIEGGLSVRETEALARKAPNLSAGKSKGGRPPRVKDTDTQALESDLSSVLGLDVSIDHRGSTGTLTITYATLEQLDDLCNRLTRGI

Variants of: B1
Assay: one-hybrid fitness for binding parS DNA (scaled: cognate 1, non-cognate 0); higher = stronger binding
Details: with parS DNA site
Outline: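 Fitness is the rescaled log change in variant-to-wild-type read ratio, measured by Illumina sequencing of plasmids before and after bacterial one-hybrid selection. The scale puts cognate at 1 and non-cognate at 0. Selection of Caulobacter ParB libraries, four specificity codons randomised, took place in E. coli USO with a HIS3 reporter, site 19 bp from the promoter, over 48 hours at 37°C on M9-minus-histidine with 0.1 mM IPTG and 5 mM 3-AT.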

Variant	one-hybrid fitness for binding parS DNA
SKSR	≤ 0.2
PPTI	≤ 0.2
PMLA	≤ 0.2
AAVY	≤ 0.2
RWRT	0.722
RQCL	≤ 0.2
MVST	≤ 0.2
AIWS	≤ 0.2
ESTN	≤ 0.2
HTRR	≤ 0.2
VAFR	≤ 0.2
HFRS	≤ 0.2
FLAR	≤ 0.2
RNYF	≤ 0.2
ARAP	≤ 0.2
HAFS	≤ 0.2
TDEV	≤ 0.2
PCHS	≤ 0.2
DMHR	≤ 0.2
PFMY	≤ 0.2
PICS	≤ 0.2
STWE	≤ 0.2
MKTA	≤ 0.2
WATG	≤ 0.2
QPTG	≤ 0.2
QENR	≤ 0.2

Variant	one-hybrid fitness for binding parS DNA
KRLW	≤ 0.2
DYTS	≤ 0.2
MNVC	≤ 0.2
NARW	≤ 0.2
RNYW	≤ 0.2
SDAA	≤ 0.2
HGLV	≤ 0.2
HYRI	≤ 0.2
LRWT	≤ 0.2
NDPI	≤ 0.2
SEWA	≤ 0.2
VHKR	≤ 0.2
MDVV	≤ 0.2
YMMR	≤ 0.2
LHHV	≤ 0.2
DMAV	≤ 0.2
NNQI	≤ 0.2
MITL	≤ 0.2
SASS	≤ 0.2
EHTV	≤ 0.2
SEES	≤ 0.2
AYGR	≤ 0.2
LPTD	≤ 0.2
AMGT	≤ 0.2
METR	≤ 0.2
ERAD	≤ 0.2

Variant	one-hybrid fitness for binding parS DNA
CVHS	≤ 0.2
DGSF	≤ 0.2
KAPG	≤ 0.2
THYE	≤ 0.2
IGVF	≤ 0.2
SIGG	≤ 0.2
TTLF	≤ 0.2
EHRL	≤ 0.2
MIGR	≤ 0.2
KGNI	≤ 0.2
VHPN	≤ 0.2
RKCI	≤ 0.2
EVSH	≤ 0.2
WSIE	≤ 0.2
PVGE	≤ 0.2
EAAI	≤ 0.2
VADR	≤ 0.2
RKMN	0.372
RHHW	≤ 0.2
FNTV	≤ 0.2
LFDL	≤ 0.2
ETYI	≤ 0.2
IPNT	≤ 0.2
DYKV	≤ 0.2
YIHV	≤ 0.2
SGPM	≤ 0.2

Variant	one-hybrid fitness for binding parS DNA
QISM	≤ 0.2
TDER	≤ 0.2
PSCC	≤ 0.2
FPTA	≤ 0.2
TGFS	≤ 0.2
FSPN	≤ 0.2
VELR	≤ 0.2
HLRN	≤ 0.2
RGST	0.601
LGHG	≤ 0.2
TEVF	≤ 0.2
PKWG	≤ 0.2
QSFA	≤ 0.2
YDCR	0.26
SVYC	≤ 0.2
ARDT	≤ 0.2
MQSW	≤ 0.2
HCPM	≤ 0.2
SRVV	≤ 0.2
YGLS	≤ 0.2
FHEG	≤ 0.2
SWAT	≤ 0.2
WHCL	≤ 0.2
SNKT	≤ 0.2
KIDV	≤ 0.2
VARV	≤ 0.2

Variant	one-hybrid fitness for binding parS DNA
HHFG	≤ 0.2
GVSI	≤ 0.2
QSWS	≤ 0.2
PRAG	≤ 0.2
SPVI	≤ 0.2
TLWM	≤ 0.2
GQTC	≤ 0.2
APPC	≤ 0.2
ANDE	≤ 0.2
VDNG	≤ 0.2
KSMT	≤ 0.2
LPQG	≤ 0.2
ILET	≤ 0.2
HHVR	≤ 0.2
NSLG	≤ 0.2
MCNR	≤ 0.2
ISYC	≤ 0.2
MKSH	≤ 0.2
KLKA	≤ 0.2
NVEF	≤ 0.2
PMKW	≤ 0.2
ENYS	≤ 0.2
DRNA	≤ 0.2
NSRF	≤ 0.2
HRLP	≤ 0.2
VTYC	≤ 0.2

Variant	one-hybrid fitness for binding parS DNA
YENN	≤ 0.2
PKTL	≤ 0.2
QEPF	≤ 0.2
WPYS	≤ 0.2
QQPY	≤ 0.2
PLRK	≤ 0.2
DPGL	≤ 0.2
AMTS	≤ 0.2
PPQF	≤ 0.2
GAVT	≤ 0.2
PLTI	≤ 0.2
RTEC	0.874
TYTV	≤ 0.2
YYAQ	≤ 0.2
CQRE	≤ 0.2
TYVI	≤ 0.2
FVLV	≤ 0.2
RRQW	≤ 0.2
SVCI	≤ 0.2
HVHA	≤ 0.2
HEAT	≤ 0.2
RHIK	≤ 0.2
MRTV	≤ 0.2
